To fix the notation:
B1: chr19:45844017:45844118:-|CDS|ENSG00000125755|msi1|FALSE|unique (ssRNA)
RNA: GGGAGUUCUACAGUCCGACGAUCGCCCGCCAGAGACCCAUGUUCAUGUCUGAGGUGAUCCAGGCCUAUGAAACUCUGCAUGGUAGGUCAUUGUCCUCCCCCCUCCCCCUGCCUUCUCUUCACUGGCCAGUCUGCUCUUUCUUUCAACAGAGGAUUGAGCAUCA
B2: chr19:1925360:1925461:+|3pUTR|ENSG00000227500|msi1|FALSE|unique (ssRNA)
RNA: GGGAGUUCUACAGUCCGACGAUCUCUCGAACUCCUGACCUCAAGUGAUCCACCCGCCUUGGCCUCCCAAAGUGCUGGGAUAAUAGGUGUCAGCCACCGCGCCCAGCCUGGAGUGGCCUUUUAUGAGAGGGGACCCGUCAAAUCCAACAGAGGAUUGAGCAUCA
B3: chr3:52707940:52708050:+|3pUTR|ENSG00000114902|msi1_unk|total|mutant (ssRNA)
RNA: GGGAGUUCUACAGUCCGACGAUCUUCCGUUCUCUUUAUACUUCAUUUCCCGCCCAGUUGGGUUUUGAUUUAUAUAAGCCGUUCCGACCUUCUCUUCAUAAUCUUGCUCUGAGAUGGGGAACAGAACACACAAGUAUGAAGUUUCAACAGAGGAUUGAGCAUCA
B4: chr19:46720021:46720126:-|3pUTR|ENSG00000090372|unk|FALSE|unique (ssRNA)
RNA: GGGAGUUCUACAGUCCGACGAUCGCCGCUCCUGGUAUCAGAGCUGCUUUCCAGAGGGCAGCACAGCCAGGGCCGGGUGUCUUUAGGGAUCAGUUUUUCCAAGACUCCAGAAGGUGCCAGGUUCUCCCCUUGAGCUCCUGCUCCCAACAGAGGAUUGAGCAUCA
B5: chr11:118751385:118751486:-|3pUTR|ENSG00000110367|msi1|FALSE|unique (ssRNA)
RNA: GGGAGUUCUACAGUCCGACGAUCUUGAAGUCUCUUCCCUUUCUACCCAGUACUCGAGCCCAGGGCUAGAAGUUGAAACUCACUAGUAAUGUUAAACACCAUUUUUUUUUUCUUUUUGGGGAGGAGUUGAUAUGCAACUGCAGUCAACAGAGGAUUGAGCAUCA
B6: chr12:42105817:42106069:-|CDS|ENSG00000151233|control|control|control (ssRNA)
RNA: GGGAGUUCUACAGUCCGACGAUCAUUGCUGCAAUGGCACCAGAACAUGAGGAACCUCGAAUAGGAUGGUAUAAUCGCUUUGCUAGGCAUCCAUAUUAUGGAAAAACUGGAGUAAACUCUGGAGUUAUGUUGAUGAACAUGACUCAACAGAGGAUUGAGCAUCA
B7: ENSG00000070961:be:win_5051|3pUTR|ENSG00000070961|bound_else_gene|NA|bound_elsewhere_windowed (ssRNA)
RNA: GGGAGUUCUACAGUCCGACGAUCUUGAAUUUAGUUUGUCUAAAAUAGUCUCACAGGUAAAAAACAUAACAACAAUGACCACCAUUGUCUUUGAUACAUUUAUUUUAAUUCUUAAGUGGCCAAAUAACAGAUUAGGUAAAAUGACAACAGAGGAUUGAGCAUCA
B8: chr7:127580627:127582013:-|three_prime_utr|ENSG00000179562|control|control|control (ssRNA)
RNA: GGGAGUUCUACAGUCCGACGAUCAGGAGUCUUCAAUGUGGGAAGGGAUUUUCUGCCAAAUGCCAUUAAUGCUGCUUUAUCCUUAGGCCCUAGAGAUACUGAAAGUCCUGGGGCAGUAUCUUCUGAUGGUGUGCAUGUGAGGAGCAACAGAGGAUUGAGCAUCA
B9: chr12:111683145:111683307:-|CDS|ENSG00000089234|control|control|control (ssRNA)
RNA: GGGAGUUCUACAGUCCGACGAUCAAAGACGACACUAGCCUCAGCUGUAGCCUGUUUAGAAGGCAAGUCACCAGGAGAGAAAGUAGCGAUUAUCCAUCAGCAUCUCGGCCGUCGAGAAAUGACAGAUGUGAUCAUUGAGACCAUCAACAGAGGAUUGAGCAUCA
B10: chr2:96373863:96373964:+|3pUTR|ENSG00000121152|unk|FALSE|unique (ssRNA)
RNA: GGGAGUUCUACAGUCCGACGAUCUAGAACUGGCAAAAUAUUUGAGUGUCCACUAGAUGAGUAUCAGACCUAGUCCUUACCCUUAGGGGGAUGCAGUCCUGGUUGUUAUCCAGGAUACACACCUGUCAGUAUAAGGCAGAAGAUCAACAGAGGAUUGAGCAUCA
B11: chr8:7990417:7990620:-|CDS|ENSG00000205989|control|control|control (ssRNA)
RNA: GGGAGUUCUACAGUCCGACGAUCGAUGUCUGCAACAUAGUAGAAGAUCAAAUUGGUGCCUGCCGAAGAAGGAUGAAGUGCUGUAGAGCAUGGUGGAUUUUAAUGCCAAUUCCAACACCACUUAUCAUGUCAGAUUAUCAAGAACAACAGAGGAUUGAGCAUCA
B12: chr7:6403584:6403671:+|3pUTR|ENSG00000136238|msi1_unk|FALSE|overlapping (ssRNA)
RNA: GGGAGUUCUACAGUCCGACGAUCUUUUCUAGUAACUAGGUGUAAAAAUCAUGUGUUGCAGCUUUAUAGUUUUUAAAAUAUUUUAGAUAAUUCUUAAACUAUGAACCUUCUUAACAUCACUGUCUUGCCAGAUUACCGACACUGCAACAGAGGAUUGAGCAUCA
B13: chr2:218454035:218454136:-|3pUTR|ENSG00000135913|msi1|total|mutant (ssRNA)
RNA: GGGAGUUCUACAGUCCGACGAUCGAGAUUUCUUCACACAGUAUGUUCAUCAUAUAUCAUCAUCAUUAUUAUGGUGGUAAAGACCGAAUCUUUUUUCUUUUUUGUCAUUCUGCCAUGGAGCAGCAUUACCCUAAUGGAUUGCAACAACAGAGGAUUGAGCAUCA
B14: chr4:140153917:140154018:-|5pUTR|ENSG00000196782|msi1|total|mutant (ssRNA)
RNA: GGGAGUUCUACAGUCCGACGAUCUUUGCAGUCGCCUCGGACUGUCCAUGUGUUUACUUCCCCCAGCCCGAGGAUUCGAUAUCCCGGUUCCUGUGAAAUGCAACUGAGCAGCCAAAGUACUUUGAGAACACGGGGCGGCAUAAACAACAGAGGAUUGAGCAUCA
B15: chr14:102225094:102226328:-|three_prime_utr|ENSG00000080823|control|control|control (ssRNA)
RNA: GGGAGUUCUACAGUCCGACGAUCCCUCCCAUCUGCUCUGCUGUCCCCACACCUGCGGUGCAGCCAGCCUGCCACAAGGCAGCUAGAGUCCAGCUAGACCCACCCCUGGCACGGCCGACCUCUUCCUGGCUUCUUCUGGGCCUACAACAGAGGAUUGAGCAUCA
B16: chr6:105097214:105097376:-|3pUTR|ENSG00000112276|msi1|total|mutant (ssRNA)
RNA: GGGAGUUCUACAGUCCGACGAUCCAUGCCUUGGUUUCCUCUCCCUUCCCUCUUUCCAAUCCUGGUUUCCUAACCUCCUCUUGCCGUAAUUCUCAACUCAACUCAAAGUCCCAAGAAUUUGGAAUGGCCGGAUGCUGUGCGGGGCAACAGAGGAUUGAGCAUCA
B17: chr10:73917138:73917420:+|3pUTR|ENSG00000122861|msi1|total|mutant (ssRNA)
RNA: GGGAGUUCUACAGUCCGACGAUCGGAAUGUAUUAUUCUGCAGCAUGACCUGUGACCAGCACUGUCUCAGUUUCACUUUCACACCGAUGUCCCUUUCUUGGCCAGUUAUCCCUUCCUUUCCGCCCCGUUCAUCCAAUCCUCACUCAACAGAGGAUUGAGCAUCA
B18: chr4:186588032:186588133:-|3pUTR|ENSG00000083857|msi1|FALSE|unique (ssRNA)
RNA: GGGAGUUCUACAGUCCGACGAUCUUUUUUUACUAUAACCAGGGUUUCAUUCUGUCUUUUUCCACUGAAGUGUGACAUUUUGUUAGUACAUUUCAGUGUAGUCAUUCAUUUCUAGCUGUACAUAGGAUGAAGGAGAGAUCAGAUCAACAGAGGAUUGAGCAUCA
B19: chr11:69653362:69653473:+|3pUTR|ENSG00000110092|msi1_unk|total|mutant (ssRNA)
RNA: GGGAGUUCUACAGUCCGACGAUCACUGCCAUGUACCCGUUUCCGUUUUCUCUCCGAACAUUGUAUUACAGAUGCCUUUUUUGCCGUUUUUUUUUUUUUUAUGUGAUCAAUUUUGACUUAAUGUGAUUACUGCUCUAUUCCAAACAACAGAGGAUUGAGCAUCA
B20: ENSG00000107863:be:win_5001|CDS|ENSG00000107863|bound_else_gene|NA|bound_elsewhere_windowed (ssRNA)
RNA: GGGAGUUCUACAGUCCGACGAUCAAAUUCUGAAGGAAGUGAAUUAAGUUGCACCGAGGGAAGUUUAACAUCAAGUUUAGAUAGCCGGAGACAGCUCUUCAGUUCCCAUAAACUCAUCGAAUGUGAUACUCUUUCCAGGAAAAACAACAGAGGAUUGAGCAUCA
B21: ENSG00000070961:be:win_3951|3pUTR|ENSG00000070961|bound_else_gene|NA|bound_elsewhere_windowed (ssRNA)
RNA: GGGAGUUCUACAGUCCGACGAUCAUUAGCAGAGCUUUAGUUUAUCUCAGUCCUGGAUGGGAGAGAGAGGGAGGAGUAAAACUGGGCAAGACAAAGAGCCCUGGAUCGUUGAAUUGAUAGUUUAAUUUCUGCUGUUGGCUGUUACAACAGAGGAUUGAGCAUCA
B22: chr2:216672374:216672548:-|3pUTR|ENSG00000115461|msi1|FALSE|unique (ssRNA)
RNA: GGGAGUUCUACAGUCCGACGAUCUUUUUCUUUUUUUUUUUGAAGACAGCAAUAACCACAGUACAUAUUACUGUAGUUCUCUAUAGUUUUACAUACAUUCAUACCAUAACUCUGUUCUCUCCUCUUUUUUGUUUUCAACUUUAACAACAGAGGAUUGAGCAUCA

Some of the results follow.

In PMC12136788 one finds binding signal data, which are given here for 22 molecules.

This assay has as its target MSI1 full-length (mouse, UniProt Q61474 1-362). Description: nsRBNS (natural sequence RNA bind-n-seq); RBNS binding buffer (assumed for nsRBNS): 25 mM Tris pH 7.5, 150 mM KCl, 3 mM MgCl2, 0.01% Triton X-100, 500 ug/ml BSA, 20 U/ml SUPERase-In, 4 C; UNK is unkempt and MSI1 is Musashi-1; names of the RNAs are library labels; protein concentration not given here; high values mean tight binding.
Chain of UniProt Q61474 (Q61474 whole entry): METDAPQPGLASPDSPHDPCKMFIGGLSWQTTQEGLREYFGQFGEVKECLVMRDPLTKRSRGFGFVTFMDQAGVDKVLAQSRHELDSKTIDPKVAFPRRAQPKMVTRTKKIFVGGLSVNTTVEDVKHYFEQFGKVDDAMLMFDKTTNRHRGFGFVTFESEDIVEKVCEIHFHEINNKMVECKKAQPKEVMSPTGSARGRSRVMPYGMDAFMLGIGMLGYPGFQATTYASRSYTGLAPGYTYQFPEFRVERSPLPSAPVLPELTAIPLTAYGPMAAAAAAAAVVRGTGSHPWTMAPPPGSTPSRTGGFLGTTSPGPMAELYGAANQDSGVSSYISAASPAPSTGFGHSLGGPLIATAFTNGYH
B1: the binding signal turned out to be 0.782 enrichment R.
Next, B2: 0.362 enrichment R.
In the case of B3 it was 0.272 enrichment R.
Next, B4: 0.456 enrichment R.
B5 displayed a binding signal of 1.4 enrichment R.
In the case of B6 it was 0.381 enrichment R.
Next, B7: 5.22 enrichment R; B8: 0.694 enrichment R; B9: 1.34 enrichment R.
In turn, B10 registered a binding signal of 0.774 enrichment R.
Next, B11: 0.446 enrichment R; B12: 4.84 enrichment R; B13: 0.306 enrichment R.
In the case of B14 it was 0.335 enrichment R; in that of B15, 0.575 enrichment R.
In the case of B16 it was 0.628 enrichment R; in that of B17, 0.747 enrichment R; in that of B18, 2.79 enrichment R.
B19 displayed a binding signal of 1.65 enrichment R.
In the case of B20 it was 0.365 enrichment R; in that of B21, 1.71 enrichment R; in that of B22, 21.2 enrichment R.
